According to PubChem BioAssay AID651820 (National Center for Advancing Translational Sciences (NCATS), 2012):
The whole screen tested about 340,000 compounds, of which about 12,000 (3.5%) were called active. The shares of active, inactive and inconclusive entries below differ from those in the screen. Calls follow the shape of the dose curve; as a rule, active = well fitted inhibition curve with a large enough effect; inconclusive = small, poorly fitted or top-dose-only effect, or another doubt; inactive = no such curve, though single readings can be large or run the other way. Potencies of inconclusive entries are left out as doubtful fits.

assay: qHTS Assay for Inhibitors of Hepatitis C Virus (HCV); settings: Huh7.5.1 HCVcc-Cre (HCVcc is cell-culture hepatitis C virus) infection, luciferase reporter, 44 h; activity change, negative = inhibition: at 41.8 µM (top of the series)
How it was run: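 1,000 cells/well; 4 h culture; + compound; + HCVcc-Cre (~0.5 moi); 44 h; luciferase substrate, RT 15 min; read 15 sec.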
% is scaled to controls: 0 for no effect and ±100 for the full control effect; potency is read from the fitted curve at half-maximal effect; tags tell the direction and shape of the fitted curve.

| SMILES | Potency | activity change, negative = inhibition |
| --- | --- | --- |
| Cc1cc(C(=O)c2cccs2)c(N)s1 | inconclusive [inhibitor, single point] |  |
| COc1ccccc1N1CCN(Cc2ccc(OC)c3ccccc23)CC1 | inconclusive [inhibitor, single point] |  |
| COc1ccc(NC(=O)Nc2ccccc2SC)cc1OC | inconclusive [inhibitor, partial curve] |  |
| Cc1cccc(-c2nc(S(=O)(=O)c3ccccc3)c(N3CCOCC3)o2)c1 | inconclusive [inhibitor, single point] |  |
| O=C(NCc1ccccn1)c1ccc(Cl)c(S(=O)(=O)N2CCCCC2)c1 | inconclusive [inhibitor, full curve] |  |
| N#Cc1ccc(CSc2nnc3[nH]c(=O)cc(N)n23)cc1 | inactive |  |
| COc1ccc(C(=O)Nc2ccc(Oc3nc(C)nc4sc(-c5ccccc5)cc34)cc2)cc1OC | inconclusive [inhibitor, partial curve] |  |
| Cc1ccc(C(C)C)c(OCC(=O)NCC(c2cccs2)N2CCOCC2)c1 (stereo not drawn) | inconclusive [inhibitor, single point] |  |
| O=[N+]([O-])c1cc(-c2nnc(Nc3ccc(O)cc3)c3ccccc23)ccc1N1CCOCC1 | inconclusive [inhibitor, single point] |  |
| C[n+]1ccc(/C=C/c2ccc(Br)cc2)cc1 | inconclusive [inhibitor, full curve] |  |
| CCOc1ccccc1N(CC(=O)Nc1cccc(OC)c1)S(=O)(=O)c1ccccc1 | inactive |  |
| Cc1ccc(C(=O)COc2ccccc2-c2ccccc2)cc1 | inactive |  |
| O=C(NC(NC(=S)Nc1ccc(Cl)c(Cl)c1)C(Cl)(Cl)Cl)c1ccco1 (stereo not drawn) | inconclusive [inhibitor, partial curve] |  |
| Cc1ccc(NS(=O)(=O)c2ccc(C(=O)N3CCN(c4ncccn4)CC3)cc2)cc1 | inconclusive [inhibitor, full curve, poor fit] |  |
| CCc1c(C)sc(NC(=O)c2cc(-c3cc(OC)ccc3OC)on2)c1C#N | inconclusive [inhibitor, full curve] |  |
| O=C(CSc1nc2ccccc2[nH]1)N/N=C/c1ccncc1 | inactive |  |
| Cc1cc(/C=C2\C(=O)NC(=S)N(C)C2=O)c(C)n1C1CCCCC1 | inactive |  |
| CCC(C)NCCCOc1c(C)cc(C)cc1Br (stereo not drawn) | inconclusive [inhibitor, full curve] |  |
| O=C(CN1CCN(c2nc(-c3ccccc3)cs2)CC1)NNC(=O)c1ccco1 | inactive |  |
| CC(C)OCCCNC(=S)NNC(=O)C(c1ccccc1)c1ccccc1 | inactive |  |
| CN(C)S(=O)(=O)c1ccc(C(=O)NCC(=O)N/N=C/c2ccccc2Cl)cc1 | inconclusive [inhibitor, single point] |  |
| COc1ccc(NC(=O)c2cc(-c3ccccn3)nc3ccccc23)c(OC)c1 | inconclusive [inhibitor, partial curve] |  |

| SMILES | Potency | activity change, negative = inhibition |
| --- | --- | --- |
| CC[C@]1(C(=O)OC)[C@H]2C(=O)N(C)C(=O)[C@H]2[C@H]2CN(C)C(=NC3CCCCC3)N21 |  | inactive: -3.05% [at 8.37 µM] |
| Cc1cc(OCC(=O)Nc2nccs2)c2c(C)cc(=O)oc2c1 | inconclusive [inhibitor, single point] |  |
| CC(C)(C)C(=O)NC1CCN(S(C)(=O)=O)CC1 | inactive |  |
| COCCN(C(=O)C(C)N1C(=O)c2ccccc2C1=O)c1c(N)n(CC(C)C)c(=O)[nH]c1=O (stereo not drawn) | inactive |  |
| CC(C)c1ccc(N2C(=NC(=O)C3CCCO3)SC3CS(=O)(=O)CC32)cc1 (stereo not drawn) | inactive |  |
| CCOC(=O)c1ccc(NC(=O)C2C3CCC(C3)C2C(=O)O)cc1 (stereo not drawn) | inconclusive [inhibitor, single point] |  |
| Cc1cc(C(=O)COc2ccccc2[N+](=O)[O-])c(C)n1-c1cccc(S(=O)(=O)N2CCOCC2)c1 | inconclusive [inhibitor, full curve] |  |
| COc1ccc([C@H]2CC(=O)C=C(c3ccccc3Oc3ccccc3)C2)cc1 | inconclusive [inhibitor, partial curve] |  |
| CCCCn1c(NC(=O)c2ccccc2)c(C#N)c2nc3ccccc3nc21 | inconclusive [inhibitor, single point] |  |
| COc1ccc(CCNc2ccc(S(=O)(=O)N3CCCC3)cc2[N+](=O)[O-])cc1 | inconclusive [inhibitor, single point] |  |
| Cc1cc(-n2c(C)cc(C(=O)COC(=O)CN=C3NS(=O)(=O)c4ccccc43)c2C)no1 | inconclusive [inhibitor, single point] |  |
| COc1cccc2sc(=NC(=O)CS(=O)(=O)c3ccc(F)cc3)n(C)c12 |  | inactive: 2.47% [at 8.37 µM] |
| COc1cc(NC(=O)c2cccc(C)c2)c(OC)cc1NC(=O)CN1CCCCC1 | inconclusive [inhibitor, partial curve] |  |
| CS(=O)(=O)N(CC(=O)NCCSc1ccc(Cl)cc1)c1ccc2c(c1)OCO2 | inconclusive [inhibitor, single point] |  |
| NS(=O)(=O)c1ccc(CCNC(=O)c2ccc(Cl)c(S(=O)(=O)N3CCCCCC3)c2)cc1 | inconclusive [inhibitor, full curve] |  |
| OCC1CCCN(C2CCN(Cc3nc(Cc4cccc(C(F)(F)F)c4)no3)CC2)C1 (stereo not drawn) | inactive |  |
| Cc1onc(-c2ccccc2Cl)c1C(=O)Nc1nc2c(s1)CCCC2 | inconclusive [inhibitor, single point] |  |
| CC(C)(C)c1ccc(CSc2nnc(-c3ccccn3)n2Cc2ccco2)cc1 | inconclusive [inhibitor, single point] |  |
| C=CCNC(=O)CC(=O)N/N=C/c1ccc(F)cc1 | inactive |  |
| O=C(NCc1ccccc1)c1ccc2c(=O)n(CCCN3CCCC3=O)c(=S)[nH]c2c1 | inconclusive [inhibitor, full curve, poor fit] |  |
| Cc1ccccc1-c1cc(C(=O)NCc2ccc3c(c2)OCO3)n(CC2CC(c3cccnc3)=NO2)n1 (stereo not drawn) | inactive |  |
